In article PMC8641752:
Changes are numbered by the printed parent chain. These are yes or no findings as the source states them, for the method shown. Binding seen in cells or lysates may run through a third protein. Some binding calls cover weakened binding; strength is not graded here.

By UniProt entry, the sequences of proteins in these tests, tags left out. Where a name states a change or a piece, a line headed by the entry shows the natural chain unless it says otherwise. Chains listed by the source or under a name are the forms on record and can include a tag or linker.
CFTRΔF508 (P13569, form named): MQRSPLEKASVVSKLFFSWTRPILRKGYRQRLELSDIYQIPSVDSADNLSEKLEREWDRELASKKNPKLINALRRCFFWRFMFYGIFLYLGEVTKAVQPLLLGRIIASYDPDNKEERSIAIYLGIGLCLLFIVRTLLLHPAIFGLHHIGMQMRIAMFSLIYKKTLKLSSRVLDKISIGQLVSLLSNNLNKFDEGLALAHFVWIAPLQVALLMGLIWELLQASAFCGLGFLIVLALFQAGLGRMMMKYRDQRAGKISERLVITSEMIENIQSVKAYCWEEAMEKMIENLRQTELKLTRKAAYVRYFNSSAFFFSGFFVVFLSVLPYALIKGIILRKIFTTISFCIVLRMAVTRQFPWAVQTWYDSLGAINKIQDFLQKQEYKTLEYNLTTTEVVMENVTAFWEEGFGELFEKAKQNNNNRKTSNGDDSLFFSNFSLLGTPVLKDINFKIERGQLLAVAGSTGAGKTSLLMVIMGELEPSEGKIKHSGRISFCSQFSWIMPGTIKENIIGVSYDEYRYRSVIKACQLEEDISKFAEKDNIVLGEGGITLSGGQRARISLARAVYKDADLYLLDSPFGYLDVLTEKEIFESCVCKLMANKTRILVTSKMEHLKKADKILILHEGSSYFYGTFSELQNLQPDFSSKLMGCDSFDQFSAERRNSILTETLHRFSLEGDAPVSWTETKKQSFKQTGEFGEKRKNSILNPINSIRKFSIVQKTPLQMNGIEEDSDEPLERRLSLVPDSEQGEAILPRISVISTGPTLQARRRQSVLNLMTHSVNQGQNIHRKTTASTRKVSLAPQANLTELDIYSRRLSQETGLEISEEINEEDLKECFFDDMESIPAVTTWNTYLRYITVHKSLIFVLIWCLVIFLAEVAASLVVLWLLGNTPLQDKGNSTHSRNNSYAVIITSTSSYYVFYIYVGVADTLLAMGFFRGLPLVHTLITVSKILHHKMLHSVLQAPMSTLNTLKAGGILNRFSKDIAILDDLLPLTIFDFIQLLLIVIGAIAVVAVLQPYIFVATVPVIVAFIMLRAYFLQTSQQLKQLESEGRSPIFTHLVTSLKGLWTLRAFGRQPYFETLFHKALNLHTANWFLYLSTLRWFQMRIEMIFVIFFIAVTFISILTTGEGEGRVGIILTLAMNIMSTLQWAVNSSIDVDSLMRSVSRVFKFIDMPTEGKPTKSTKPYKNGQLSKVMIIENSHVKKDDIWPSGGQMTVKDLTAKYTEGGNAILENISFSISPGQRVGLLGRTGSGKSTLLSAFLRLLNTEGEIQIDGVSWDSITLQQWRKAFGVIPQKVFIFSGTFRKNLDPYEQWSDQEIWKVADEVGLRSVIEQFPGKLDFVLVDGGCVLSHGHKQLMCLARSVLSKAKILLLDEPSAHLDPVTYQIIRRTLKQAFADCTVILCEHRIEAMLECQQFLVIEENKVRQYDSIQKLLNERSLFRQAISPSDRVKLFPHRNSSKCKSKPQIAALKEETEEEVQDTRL

Tests used:
Test in all cases: pull-down; HEK293 cells treated with 50 μM MG132 for 12 hours; microsomes solubilised in 1% digitonin, 300 mM NaCl, 10 mM imidazole, pH 8.0; Derlin-1 held on Ni2+ beads overnight at 4°C; blots against Derlin-1 and CFTR
Derlin-1 W53A (human) = molecular target: T1, Derlin-1 W53A (human) (UniProt Q9BUN8)
T1 sequence: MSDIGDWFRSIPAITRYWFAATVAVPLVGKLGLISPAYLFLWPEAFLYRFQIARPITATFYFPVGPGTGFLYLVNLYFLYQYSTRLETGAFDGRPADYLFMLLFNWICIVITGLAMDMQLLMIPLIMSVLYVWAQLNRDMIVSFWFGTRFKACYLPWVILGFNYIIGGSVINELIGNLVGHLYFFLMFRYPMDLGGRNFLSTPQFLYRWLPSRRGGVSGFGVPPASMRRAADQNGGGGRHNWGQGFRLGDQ

Derlin-1 A45S (human) = molecular target: T2, Derlin-1 A45S (human) (UniProt Q9BUN8)
T2 sequence: T1 sequence with A45S, A53W

Derlin-1 R49A (human) = molecular target: T3, Derlin-1 R49A (human) (UniProt Q9BUN8)
T3 sequence: T1 sequence with R49A, A53W

Derlin-1 F91A (human) = molecular target: T4, Derlin-1 F91A (human) (UniProt Q9BUN8)
T4 sequence: T1 sequence with A53W, F91A

CFTRΔF508 (from UniProt P13569 1-1480)
binding (Derlin-1 W53A (human)): no binding | binding (Derlin-1 A45S (human)): no binding | binding (Derlin-1 R49A (human)): no binding | binding (Derlin-1 F91A (human)): binds
